Out of some 110,000 compounds screened, about 230 (0.21%) showed an effect of 50% or more. This is one part of the list.
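Further: 30 min substrate incubation versus DMSO and 10 µM JCP410 controls.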

DPAP1, sequence (Q8IIJ9 whole entry, looked up): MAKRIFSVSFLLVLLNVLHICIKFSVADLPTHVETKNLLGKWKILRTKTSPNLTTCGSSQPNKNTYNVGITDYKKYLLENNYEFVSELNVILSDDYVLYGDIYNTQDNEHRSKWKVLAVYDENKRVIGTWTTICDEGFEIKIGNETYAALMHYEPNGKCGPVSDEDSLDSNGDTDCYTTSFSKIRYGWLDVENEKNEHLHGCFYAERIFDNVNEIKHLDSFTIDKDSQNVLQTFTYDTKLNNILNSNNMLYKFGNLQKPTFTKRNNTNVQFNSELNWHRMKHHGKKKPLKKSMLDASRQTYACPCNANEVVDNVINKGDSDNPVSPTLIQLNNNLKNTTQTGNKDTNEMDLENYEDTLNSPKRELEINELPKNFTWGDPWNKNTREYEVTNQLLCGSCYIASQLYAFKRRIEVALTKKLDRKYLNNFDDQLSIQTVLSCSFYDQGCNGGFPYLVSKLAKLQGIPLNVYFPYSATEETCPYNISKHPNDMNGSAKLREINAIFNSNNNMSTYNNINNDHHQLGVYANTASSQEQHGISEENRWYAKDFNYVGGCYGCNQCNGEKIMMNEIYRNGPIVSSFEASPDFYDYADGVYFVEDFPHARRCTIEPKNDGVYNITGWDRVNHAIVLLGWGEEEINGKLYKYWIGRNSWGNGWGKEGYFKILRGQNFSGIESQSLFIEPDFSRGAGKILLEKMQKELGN

The assay addresses DPAP1 (Plasmodium falciparum, UniProt Q8IIJ9). The assay is described as follows: primary screen, percent inhibition; read by cleavage of a fluorogenic dipeptide substrate; higher = more effect of the substance. Also noted: species or system P. falciparum D10 trophozoite lysates; single well.
As to `COc1cccc(CN2CCN(Cc3cccc(Cl)c3)CC2)c1OC`, the “% Inhibition @ 10 uM” value was -0.0938%. As to `O=C(Cc1cccs1)Nc1c(C(=O)N2CCN(c3ncccn3)CC2)oc2ccccc12`, the “% Inhibition @ 10 uM” value was -7.16%. Consider `COc1ccc(S(=O)(=O)N(CC(=O)N2CCCCC2)c2ccc(C)cc2)cc1`, for which the “% Inhibition @ 10 uM” value is given as -2.28%. On to `COc1ccc(CCNC(=O)c2ccc(CNC(=O)c3ccc4c(c3)OCO4)cc2)cc1OC`, for which the “% Inhibition @ 10 uM” value is reported as 1.42%.

With `COc1ccc(C=C2C(=O)c3ccccc3C2=O)c2ccccc12`, the “% Inhibition @ 10 uM” value is -1.47%. As for `Cc1ccccc1S(=O)Cc1ccc(C(=O)NC(C)C)o1` (stereo not drawn), the “% Inhibition @ 10 uM” value is 0.401%. With `CCCCNC(=O)c1ccc(CS(=O)Cc2ccc(C)cc2)o1` (stereo not drawn), the “% Inhibition @ 10 uM” value is listed as -4.82%.

In the case of `COc1ccc2[nH]c3c(=O)n(CCCCCC(=O)NCCNC(C)=O)c(=S)[nH]c3c2c1`, the “% Inhibition @ 10 uM” value was -5.79%. To `O=C(c1ccc(Br)o1)N1N=C(c2ccc(Cl)cc2)CC1c1ccco1` (stereo not drawn) belongs 9.48%.

Take `Cc1ccc2cc(CCN3C(=O)c4ccccc4C3=O)c(O)nc2c1C`: the “% Inhibition @ 10 uM” value is listed as -4.81%. To `CCC(C)C(NC(=O)OCc1ccccc1)C(=O)NC(CCCCNC(=O)OCc1ccccc1)C(=O)CO` (stereo not drawn) belongs 5.05%.

In the case of `N#CCNC(=O)[C@H](CSCc1ccccc1)NC(=O)c1ccc(C(=O)c2ccccc2)cc1`, the “% Inhibition @ 10 uM” value is -3.49%.

With `Cc1ccc(-n2nnnc2Cc2cc3c(cc2Br)OCO3)cc1`, the “% Inhibition @ 10 uM” value is -0.92%. With `CC(=O)c1sc(Nc2cccc(C(F)(F)F)c2)nc1C`, the “% Inhibition @ 10 uM” value was 1.51%. Take `COc1cc(C2C3=C(O)CCCC3=NC(C)=C2C(=O)OCCOc2ccccc2)cc(OC)c1OC` (stereo not drawn): the “% Inhibition @ 10 uM” value is given as -2.6%. As to `CCc1nnc(NC(=O)C2=CCN(S(=O)(=O)c3ccc(F)cc3)CC2)s1`, the “% Inhibition @ 10 uM” value came out at 1.8%. For `Cc1cccc(NC(=O)c2ccc3c(Cl)c4c(nc3c2)CCCC4)n1`, the “% Inhibition @ 10 uM” value came out at 1.66%. As to `COc1cc(NC(=O)NC23CC4CC(CC(C4)C2)C3)c(OC)cc1Cl`, the “% Inhibition @ 10 uM” value is -4.01%.

Turning to `CCn1cc(CCCC(=O)O)c2ccccc21`, the “% Inhibition @ 10 uM” value was found to be 6.3%. As for `COc1ccccc1/C=C/C(=O)Nc1cc2c(ccc3ccccc32)oc1=O`, the “% Inhibition @ 10 uM” value came out at 7.49%. To `O=C1CC(c2ccco2)CC(=O)C1=CNc1ccc(Cl)cc1C(=O)c1ccccc1` (stereo not drawn) belongs -4.49%; to `CCN(CC)CCNS(=O)(=O)c1cccc2nsnc12`, 1.42%; to `O=C(Nc1c(C(=O)c2cccs2)oc2ccccc12)c1cccs1`, 5.84%. For the molecule `CCN(CC)S(=O)(=O)c1cccc(C(=O)Nc2ccc(S(=O)(=O)N3CCOCC3)cc2)c1`, the “% Inhibition @ 10 uM” value was -7.62%. For `Cc1nc2c(-c3ccccc3)cnn2c(N)c1-c1ccccc1`, the “% Inhibition @ 10 uM” value stood at 0.913%. For `CC1(C)CC(=O)C2=C(C1)c1c(ccc3ccccc13)NC2c1ccco1` (stereo not drawn), the “% Inhibition @ 10 uM” value was 5.45%. Consider `Cc1cs/c(=N/C(=O)c2ccccc2)n1-c1ccc(Cl)cc1`, for which the “% Inhibition @ 10 uM” value came to 0.35%. Take `COc1ccc(-n2nc3cc(C)c(NC(=O)COc4ccccc4)cc3n2)cc1`: the “% Inhibition @ 10 uM” value is -2.65%. `CC(C)C(NS(=O)(=O)c1cccs1)C(=O)NCc1ccccc1Cl` (stereo not drawn): the “% Inhibition @ 10 uM” value is given as -4.07%.

Regarding `Cc1ccc(C2C(C#N)=C(N)SC3=C2C(=O)CCC3)o1` (stereo not drawn), the “% Inhibition @ 10 uM” value is reported as 2.01%. With `CC1CCCCN1c1ncnc2onc(-c3ccc(Cl)cc3)c12` (stereo not drawn), the “% Inhibition @ 10 uM” value is on record as 4.28%.

As for `N#Cc1cc(C(=O)Nc2ccccc2)n2ccccc12`, the “% Inhibition @ 10 uM” value is on record as -1.08%. Regarding `Cc1cc(CN2CCOCC2)c(O)c(CN2CCOCC2)c1`, the “% Inhibition @ 10 uM” value is recorded as -2.44%.

With `CCOc1ccc(N(CC(=O)Nc2ccccc2Br)S(C)(=O)=O)cc1`, the “% Inhibition @ 10 uM” value is -1.95%. Under `c1cnc(N2CCN(Cc3ccco3)CC2)nc1` stands -8.13%; under `O=C(O)CC(c1cccs1)N1Cc2ccccc2C1=O` (stereo not drawn), -1.03%; under `CCOCC(=O)Nc1c(C(=O)N2CCN(c3ncccn3)CC2)oc2ccccc12`, -3.11%. With `CC1=C(CCN(C)C2CCN(C)CC2)C(C)(C)CCC1`, the “% Inhibition @ 10 uM” value is on record as 2.1%. For the molecule `COc1cccc(Nc2nc(-c3ccccc3)cs2)c1`, the “% Inhibition @ 10 uM” value is listed as -0.76%. Under `O=C(NCCc1ccccc1)C1CCC(CNc2c(N3CCCCC3)c(=O)c2=O)CC1` (stereo not drawn) stands 1.02%; under `COC(=O)Cn1c(=N)sc2ccccc21`, 1.9%; under `O=C1CC(N2CCN(Cc3ccc4c(c3)OCO4)CC2)C(=O)N1c1ccccc1Cl` (stereo not drawn), 0.35%. As to `CCn1c(C(=O)NCc2cccs2)cc2sc(Cl)cc21`, the “% Inhibition @ 10 uM” value is given as -8.58%. As to `COc1cc(OC)c(/C=C2/SC(=O)N(CC(=O)N3CCN(c4ccccc4)CC3)C2=O)c(OC)c1`, the “% Inhibition @ 10 uM” value is given as 0.795%. On to `COc1ccc(O)c(C2NC(C(=O)O)Cc3c2[nH]c2ccccc32)c1` (stereo not drawn), for which the “% Inhibition @ 10 uM” value is given as -0.254%. Take `Cc1ccc2c(c1)-c1onc(C(=O)N(Cc3ccco3)CC3CCCO3)c1CO2` (stereo not drawn): the “% Inhibition @ 10 uM” value is -3.47%. For the molecule `CCCCOc1ccc(/C=c2\sc3nc(-c4cccnc4)nn3c2=O)cc1`, the “% Inhibition @ 10 uM” value came out at 0.487%. As to `COCCCNC(=O)Cn1c(=S)[nH]c2c([nH]c3ccc(OC)cc32)c1=O`, the “% Inhibition @ 10 uM” value is -0.495%. `CC(C)(C)OC(=O)N(CC(=O)CNC(=O)[C@H](Cc1ccc2ccccc2c1)NC(=O)OCc1ccccc1)Cc1ccccc1`: the “% Inhibition @ 10 uM” value is recorded as -9.15%. `CC1(C)CC(=O)c2c(nn(-c3ccccc3)c2-c2cccnc2)C1`: the “% Inhibition @ 10 uM” value is 6.15%. Regarding `COc1ccc2c(Sc3ccccc3)c(C(=O)NCc3ccccn3)[nH]c2c1`, the “% Inhibition @ 10 uM” value is -6.3%. As for `O=C(O)CSc1ccc(Oc2ccc(SCC(=O)O)cc2)cc1`, the “% Inhibition @ 10 uM” value was 4.82%. To `CCCCOc1ccc(CN2CCC(O)CC2)cc1` belongs -5.42%; to `CC(C)CNC(=O)c1cccc(NC(=O)CN2C(=O)c3ccccc3C2=O)c1`, -3.95%. For `Cc1ccc2nc(N(CCCN(C)C)C(=O)C3COc4ccccc4O3)sc2c1` (stereo not drawn), the “% Inhibition @ 10 uM” value was determined as 2.25%. Regarding `Cc1ccc2c(c1)-c1onc(C(=O)N(CC(C)C)CC(C)C)c1CO2`, the “% Inhibition @ 10 uM” value is given as -3.47%. As to `Cn1ncc2c(NCCCN3CCOCC3)ncnc21`, the “% Inhibition @ 10 uM” value is given as -1.47%. As for `COc1ccc(-c2cc(C(F)(F)F)n3ncc(C(=O)Nc4cccnc4Cl)c3n2)cc1OC`, the “% Inhibition @ 10 uM” value is listed as -4.84%. Under `CCN(CC)CCCNC(=O)c1ccc2nc(N3CCOCC3)sc2c1` stands 2.65%. With `CCn1c2ccccc2n2c(SCc3nc4ccccc4[nH]3)nnc12`, the “% Inhibition @ 10 uM” value is on record as -5.38%. For `O=C1S/C(=C\c2ccc3c(c2)OCO3)C(=O)N1Cc1ccccc1F`, the “% Inhibition @ 10 uM” value was -9.45%. Regarding `COc1cc(C2C3=C(O)c4ccccc4C3=Nc3nc(N)nc(O)c32)ccc1O` (stereo not drawn), the “% Inhibition @ 10 uM” value is on record as -5.4%.

For `O=C1OC2(CCCC2)OC(=O)C1=Cc1ccc(-c2cccc(C(F)(F)F)c2)o1`, the “% Inhibition @ 10 uM” value is on record as -4.51%.

On to `CCc1nnc(NC(=O)C(=O)c2cc(C)n(-c3cccc(C)c3)c2C)s1`, for which the “% Inhibition @ 10 uM” value was 0.655%. For `COc1ccc(CC/N=C(\C)C2=C(O)CC(C)(C)CC2=O)cc1OC`, the “% Inhibition @ 10 uM” value is recorded as 1.82%. To `Cc1cccc(NC(=O)CN(Cc2ccc(Cl)cc2)S(=O)(=O)c2ccccc2)c1` belongs -3.49%. In the case of `CN1CCC(N(C)Cc2ccccc2Cl)CC1`, the “% Inhibition @ 10 uM” value is listed as 3.1%. To `Cc1ccc(CNC(=O)c2cc(=O)c3ccc(C)cc3o2)cc1` belongs -1.47%; to `CN(c1cccc(NC(=O)CN(c2ccc(F)cc2)S(C)(=O)=O)c1)S(C)(=O)=O`, 0.381%; to `Cc1cc(C)n(Cc2ccc3c(c2)OCO3)c(=O)c1C#N`, 4.33%. Take `O=C(O)C1CC=CCC1C(=O)N1CCN(c2ccc(F)cc2)CC1` (stereo not drawn): the “% Inhibition @ 10 uM” value is 2.42%. To `COc1ccc(CN2CCN(c3ccc(C(C)=O)cc3)CC2)c(C)c1C` belongs 2.41%; to `Cc1c(-c2ccccc2)cn2ccn3c(C)ccc3c12`, 4.22%. In the case of `Cc1ccc(C2=CC(c3cccc(Cl)c3)n3nc(CCCO)nc3N2)cc1` (stereo not drawn), the “% Inhibition @ 10 uM” value is listed as -1.98%.

In the case of `COc1cc(OC)c(OC)cc1/C=C1\CN(C(C)C)C/C(=C\c2cc(OC)c(OC)cc2OC)C1=O`, the “% Inhibition @ 10 uM” value is on record as -2.95%.

On to `O=C(Nc1ccccc1O)c1cccc(C(=O)Nc2ccccc2O)c1`, for which the “% Inhibition @ 10 uM” value is reported as -0.0217%. `COCCCNC(=O)c1ccc(CS(=O)(=O)Cc2ccc(C)cc2)o1`: the “% Inhibition @ 10 uM” value was found to be 3.79%. For the molecule `COc1ccc2c(c1)c1nc(SCC(=O)c3ccccc3)n(CCO)c(=O)c1n2C`, the “% Inhibition @ 10 uM” value was found to be 26.7%. On to `Cc1nn(CC(=O)O)c(=O)c2ccccc12`, for which the “% Inhibition @ 10 uM” value is 39.5%.

Consider `COc1cccc(CNCCO)c1OCc1ccc(Cl)cc1`, for which the “% Inhibition @ 10 uM” value turned out to be 3.63%.

On to `CS(=O)(=O)C1=NSC2=NC(=O)/C(=C\c3ccc(Cl)cc3)C(=N)N21`, for which the “% Inhibition @ 10 uM” value is reported as -3.39%. `Cc1ccc(C)c(Cn2c(C)c(CNCCc3cccs3)c(C(=O)O)c2C)c1`: the “% Inhibition @ 10 uM” value stood at 7.46%. In the case of `O=C(NCc1ccccc1)c1cccnn1`, the “% Inhibition @ 10 uM” value is recorded as 2.77%. Under `O=C(CSCc1cnn(-c2ccccc2)c1-n1cccc1)NCc1cccnc1` stands 5.42%; under `CNC(=S)NCCc1c(C)[nH]c2ccc(OC)cc12`, -5.79%. In the case of `O=C(O)C1CCN(S(=O)(=O)c2ccccc2C(F)(F)F)CC1`, the “% Inhibition @ 10 uM” value came out at 0.401%. Under `CCCS(=O)(=O)N1CCC(C(=O)NCCC(C)C)CC1` stands 3.24%; under `N#Cc1c(N)n(-c2cccc(O)c2)c2nc3ccccc3nc12`, -2.18%; under `COc1ccc2[nH]cc(CCNS(C)(=O)=O)c2c1`, -5.46%. Under `COc1cccc(C(=O)N2CCN(Cc3ccccc3)CC2)c1` stands -1.38%; under `N#Cc1c(NC(=O)/C=C/c2ccccc2)sc2c1CCCC2`, -0.833%; under `O=C(NCCc1cccs1)C1CCCN(S(=O)(=O)N2CCC3(CC2)OCCO3)C1` (stereo not drawn), -2.56%.

Consider `CCOc1cccc(C(=O)C2=C(O)C(=O)N(Cc3ccncc3)C2c2cccc(OC)c2)c1` (stereo not drawn), for which the “% Inhibition @ 10 uM” value was 0.83%. Consider `CCOc1ccc(N(C(C)C(=O)N2CCCC2)S(C)(=O)=O)cc1` (stereo not drawn), for which the “% Inhibition @ 10 uM” value is reported as -3.39%. Turning to `O=[N+]([O-])c1ccc(-c2cc(-c3ccc(Br)cc3)nc(O)n2)cc1`, the “% Inhibition @ 10 uM” value is listed as -5.28%. Consider `Cc1ccc(NC2=NC(=O)C(CC(=O)Nc3cccc(C)c3)S2)cc1` (stereo not drawn), for which the “% Inhibition @ 10 uM” value is 9.88%. As to `Cc1cc(C)c2c(N)c(C(=O)c3ccc(Br)cc3)sc2n1`, the “% Inhibition @ 10 uM” value is recorded as 7.37%.

In the case of `O=C(O)c1ccc(CSc2nc3ccccc3o2)cc1`, the “% Inhibition @ 10 uM” value is recorded as -2.27%. With `CCOC(=O)c1oc2ccc(CNC3CCCCC3)c(Cl)c2c1C`, the “% Inhibition @ 10 uM” value is 4.16%.

(Values after PMC6919601, “Identification of Plasmodium dipeptidyl aminopeptidase allosteric inhibitors by high throughput screening” (PLoS ONE, 2019).)
